The supplement of paper PMC3334620
Over roughly 33,000 sequences, “E-score (-0.5 to 0.5)” has its median near -0.012; the highest 2% begin near 0.29. The list shows a part of the results.

biological target: T1, Ybr033w (UniProt P38073); assay: PBM E-score (8-mer binding enrichment) (E-score (-0.5 to 0.5)); higher = stronger / more preferred TF binding; most listed sequences are background and not binding sites; conditions: protein concentration: 200 nM; construct: GST-full length
T1 sequence: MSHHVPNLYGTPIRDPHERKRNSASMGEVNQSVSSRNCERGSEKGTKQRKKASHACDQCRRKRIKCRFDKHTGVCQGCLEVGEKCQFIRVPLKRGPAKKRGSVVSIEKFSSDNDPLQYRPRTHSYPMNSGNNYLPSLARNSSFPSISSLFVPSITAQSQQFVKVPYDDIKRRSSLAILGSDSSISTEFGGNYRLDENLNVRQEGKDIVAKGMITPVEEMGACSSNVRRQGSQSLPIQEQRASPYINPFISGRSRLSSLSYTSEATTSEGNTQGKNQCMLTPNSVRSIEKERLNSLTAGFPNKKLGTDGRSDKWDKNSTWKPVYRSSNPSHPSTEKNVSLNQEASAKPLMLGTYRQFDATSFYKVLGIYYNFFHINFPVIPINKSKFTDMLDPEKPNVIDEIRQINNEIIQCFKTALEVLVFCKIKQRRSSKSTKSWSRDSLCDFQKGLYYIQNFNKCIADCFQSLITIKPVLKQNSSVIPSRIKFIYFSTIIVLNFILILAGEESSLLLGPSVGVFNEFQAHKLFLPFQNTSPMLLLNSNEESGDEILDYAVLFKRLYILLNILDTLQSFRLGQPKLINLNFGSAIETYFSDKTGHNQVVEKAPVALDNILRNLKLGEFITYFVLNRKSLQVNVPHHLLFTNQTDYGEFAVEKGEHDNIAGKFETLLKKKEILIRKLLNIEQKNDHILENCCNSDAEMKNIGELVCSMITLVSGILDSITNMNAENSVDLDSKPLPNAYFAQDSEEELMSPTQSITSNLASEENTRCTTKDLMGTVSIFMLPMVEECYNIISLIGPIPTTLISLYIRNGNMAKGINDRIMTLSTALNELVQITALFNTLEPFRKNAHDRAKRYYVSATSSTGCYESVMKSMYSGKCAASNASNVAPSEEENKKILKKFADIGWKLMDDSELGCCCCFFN
Method in brief: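 Universal all-10-mer Agilent arrays, fresh or stripped once, were converted to double-stranded form by primer extension. GST-tagged yeast transcription factors from PURExpress in vitro transcription/translation, full-length or DNA-binding domain only, were applied at about 100-200 nM and detected with fluorescent anti-GST. After masliner normalisation, the Universal PBM Analysis Suite scored each ungapped eight-base word together with its reverse complement by E-score.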

Sequence	PBM E-score
ACAGCAGA	-0.0922
GGACATCC	-0.0509
ACATCTTA	0.101
AATTTCAC	0.214
ACTCGTCT	0.11
GCGGAGCA	-0.0369
AAGCACTC	-0.0754
CGCATAGC	-0.193
ACACTGTC	-0.158
ACGAAGAT	-0.0249
TCGGGGAA	0.0246
CCCACGAC	-0.239
CCAACTCC	0.0716
AATTGAGC	-0.0899
CGGGTTAG	-0.265
AAGGTCAG	-0.0273
AGTCCGCG	-0.253
CGAGGGAA	-0.0841
CTATTGGC	-0.0572
GGGAACAA	0.381
GAGTGAGC	-0.125
ATCATGTC	0.133
ATAATAGG	0.226
ACTGTACT	-0.162
CAGAGGGG	-0.251

Sequence	PBM E-score
CTCTATTA	0.152
AAGGCTAG	0.0657
ACCCTGTA	-0.0511
CGTTGGCC	-0.196
ATCGTTAA	0.24
CTATTTTA	0.252
GTAATGTA	0.0536
CCTGGTAC	-0.0749
AGTGGTCC	-0.141
CCAACAAG	0.0698
CGTTACAG	-0.0249
AGGGTTCA	0.0464
GTTACACA	0.00412
TACCGACA	-0.00649
AAATGGTC	0.262
CGCATTCC	-0.275
AAAGCCAT	0.162
ATCTCAGC	-0.00333
AACATCAG	0.173
CACAGGGC	-0.172
CACGGCAA	0.0311
CGTGCCCA	-0.0995
TACGGAAA	0.24
ATCGCAGA	-0.175
ACTAAGCG	-0.117

Sequence	PBM E-score
ACCCTAAC	0.0314
GTGAGTGA	-0.159
GACTACAC	-0.038
GCCAAAGC	-0.169
ATCGTTTG	0.0414
AATGATAG	0.215
CTAACTTA	0.0795
GCACCTGC	0.0281
GAACCAGC	0.131
ATAGTGTG	0.179
CACGGATC	-0.00514
ACCTAAAT	0.198
GGGTCTAC	-0.118
GGTCAGGA	-0.0921
CTGTTAGA	-0.0205
CTTCCTAC	-0.181
GGATAGCA	-0.00024
TAAAACCA	0.106
GCATGCAA	-0.0121
ATCTGCGC	-0.136
ACGCGCTA	0.0816
CAGGCAAG	-0.105
CTTCAGTA	0.0771
CGCCGCCC	-0.252
CTGCAGCA	-0.0314

Sequence	PBM E-score
AAGGTAGG	-0.054
TGGTGAAA	-0.0357
CAGGTCAA	-0.148
GGACGCCC	-0.363
AACGGTCT	-0.0773
AAACACTG	0.127
GAGGAAAA	0.199
CGATCATA	0.0546
CCAGGTCG	-0.105
GTTAATAA	0.329
CTGTCGAC	-0.176
GCAAGACA	-0.0734
TGGCCCAA	-0.176
CCACGGCG	-0.16
CCGGTGGA	-0.0838
AGTGATTG	0.0992
ACGAGTGG	-0.135
ACGTCGTA	-0.204
ATTCTAGA	0.225
ACGACACT	0.0431
AGCCCATC	-0.122
ACAGTCGC	-0.136
AGGCTCGA	0.0227
GGGCAGCA	-0.243
CCGACCAA	-0.0529

Sequence	PBM E-score
CCACTCTC	-0.0585
GCTATGAC	0.042
AGCCAATC	0.0182
ACGTCAGC	0.0468
CCGTCACG	-0.0881
GAGTGGAA	0.134
AGGGCCAA	-0.373
CGTAGTAA	0.0993
ACAGACGA	0.085
AATGCGAT	-0.0207
AATCCAGG	0.123
TCCGAGCA	0.0809
GAAGGCAA	0.0233
AAGATATG	0.241
ACCTAGCA	0.0895
CCAAAGGC	-0.161
ACGGTTTC	-0.0349
ACGTCTCA	0.102
GCACATAC	-0.235
CACGTGAG	-0.131
CCGCAAAG	0.0497
GCCCGATA	-0.169
CATGGATC	0.0252
AGTATGCC	-0.0467
CTAGCTCA	0.00463

Sequence	PBM E-score
AGGAGCAA	-0.221
CTGGTCGA	-0.173
AATTCGAA	0.187
GATAGTTA	0.151
ACACTTGG	0.0106
GGTGCCAA	-0.0332
ACTTCGAG	-0.00832
ATCGGCTC	-0.0987
AGAATTCC	0.0767
AAACATCA	0.144
AGGTAGGG	-0.11
AGACGTTA	-0.143
GACCTTGA	0.0594
TGTCAGAA	0.0665
ATGCAACC	0.0993
ACGTTGAA	0.0704
GCTACAAA	0.0727
CATGCACG	-0.0999
AAGGATGA	0.0188
CACTATTC	0.181
CTGGACCA	-0.179
AAGAGATG	-0.136
AAGTTCGG	-0.0232
GGATTAAC	0.441
CCCGCCTA	-0.0275

Sequence	PBM E-score
AATAAGAC	0.0344
CGTCTAGC	-0.0278
AAGCCCGA	-0.0933
ATCGACCA	-0.101
CGAGAATC	-0.0666
ACACAATC	0.0933
ACCCGCAC	-0.00772
TGATTGCA	0.146
AGGACTCG	-0.322
GACAAATA	0.277
CAGGGATC	-0.108
AAATCCCG	0.196
AGGATTGC	-0.143
CAGACGGG	-0.122
ATGATATC	0.00879
CGCCGCTC	-0.255
CCCCACGC	-0.336
ATGAGCCA	0.058
AGAACCGC	0.096
AGACACTC	-0.0228
CGTGTGGA	-0.172
TAGCCGAA	0.0185
TACCGCTA	-0.0732
TCACTAGA	0.12
CTTAGTCC	-0.0064

Sequence	PBM E-score
CAGTAATG	0.282
AACCCGTC	-0.177
GCAGTAAC	-0.0889
GTCGCCGA	-0.159
ATACTCTA	0.0965
GAGACACA	-0.0143
AAAAACTA	0.26
ACTTCAAC	0.108
CATTCAAC	0.0394
ATTAGATG	0.329
TTAAAGAA	0.117
CATCCGGC	-0.00234
TAAGGGAA	0.149
ACACCCAC	0.00384
CCTCGGCC	0.0245
CGTTATAC	-0.168
AGTAACTA	0.137
CAAATAAG	0.0366
GCCCAAGA	-0.17
AAGATCCT	0.237
AATTGAGG	0.149
ATATATCA	0.0628
ACCATGAA	0.0989
ACCAAACT	0.0243
GTGGTCCA	0.0238

Sequence	PBM E-score
GTGCATAA	0.0823
ATGCCAGA	0.0873
CGGGCGCC	-0.158
GCTTCCAC	-0.224
AGTTGGCC	-0.141
GCTGTAAC	0.074
AATCACCC	0.157
AGAGGGGC	-0.284
AAAGATAC	0.12
ACCGCCTC	-0.215
CTATTCAG	0.0682
ACAGATCT	0.0117
AAGGTCGC	-0.155
ACGGGACA	-0.0377
CAGATTTA	0.241
AAGGCAAC	0.0645
TGAGTTAA	0.239
AATAAAGG	0.0453
AGCTCCTG	-0.236
AGAAGCCG	-0.138
AGGGCACC	-0.315
CCCAAGAG	-0.146
GCTAGTCA	0.0653
AGCGACTC	-0.0349
GTGGTGTA	0.122

Sequence	PBM E-score
AATAAATA	0.378
CGCAGAGA	-0.0686
GGTGAAAA	0.158
AGCTATTC	0.00704
ACTTGGCT	0.102
CACCCGAG	-0.105
CTAACAGA	0.163
GGCGCTCA	-0.204
GATCTCCC	-0.247
ATGCAGTC	-0.0212
ACAACAAT	0.122
CAGACCTC	-0.102
ACTCCCTG	0.00695
GGGGGCAA	-0.28
ATATATCG	0.228
AAGTCGTA	0.0926
AGTCAACA	0.184
CAGGGCAA	-0.132
AGAGCATC	-0.179
GGCGGCGA	-0.0551
GTACAATA	0.199
TACGGCGA	0.0446
CCTATAAC	-0.142
CCGAGTAC	-0.0398
AGCGACAG	0.0176

Sequence	PBM E-score
AGCATGGA	-0.166
CAAAATAG	0.0554
AAAAGTCT	0.0541
AACGTAAC	0.113
CATCAAGA	0.122
TGAATACA	0.21
AGTGCATC	-0.0224
ACAACCCA	0.0739
GTAGTTGA	0.269
CGTCGACG	-0.386
AAGGCGGA	-0.0452
AAGGGAGG	-0.32
ACGTTATA	0.167
AGTGCACC	-0.00086
ACACACAG	0.0568
CATGCGGA	-0.171
CCAGGATA	0.164
ACAACGGC	-0.124
GTCTACTA	0.179
CGCACCCA	-0.3
CAGCACGC	-0.059
ATGATGAG	0.0214
CGCTTCAG	-0.15
CATCTTAA	0.166
GCACCTCA	0.0735

Sequence	PBM E-score
AAATGACG	0.0876
CTCAACGC	-0.285
AACCTGAG	0.112
CGAGGTAG	-0.311
GCAGGCCA	-0.168
AGGGTCTA	-0.106
GAATATGA	0.203
GAAAGAGC	-0.0205
CCCAAACG	-0.21
CCCACGGC	-0.21
ATGCACGG	-0.204
ACGGGGTC	-0.271
ATTCAGCC	-0.0397
ATCCCACA	-0.0695
GGTGTAAC	0.0807
CGAAAGAC	0.0779
ACGGCGCA	0.00405
ACATGAGG	-0.0701
ACCGTTGG	-0.187
CATTAGTC	0.013
CTTTTACA	0.23
CACCTCAC	0.0264
AGGCAGCG	-0.245
ATCAGAAG	0.0587
GCCGGACC	-0.32

Sequence	PBM E-score
CTTGTATC	0.184
TGAGTGAA	0.0649
GATGTCCA	0.0453
GAGATACC	0.00548
CAAGGAAG	0.0258
ATCCCTTG	-0.0289
GTAGGGCA	-0.0411
AAATCGTG	0.256
GTGAAAGA	0.0852
TACCGCGA	0.0786
AGTAGTTG	0.176
CTGACCTC	-0.13
CTATCGCC	-0.346
AAGCAACT	0.123
GGAATTTA	0.16
CGGTGATA	0.178
AACCTCCC	-0.2
CGCTAATC	-0.0406
CCGTTAGC	-0.135
CAGATTCC	-0.0173
AAAAAACG	0.243
CATGAGAG	-0.0357
ACCCTCGC	-0.254
ATACAATA	0.332
GTGGATCA	0.0654

Sequence	PBM E-score
ACACCTCC	-0.212
AGGCGTTG	-0.0125
CTGATGAC	-0.076
ACCAATCT	-0.0208
GCGGATGA	0.0612
ACAGACGT	-0.24
GCCACCCC	-0.319
CATTGATA	0.172
TGAAGTCA	0.0881
CACATATA	0.0859
CACGACAG	-0.0203
GCCTATTA	0.0806
CCCTGGAC	-0.294
AATTCTCC	0.293
CATGAACA	0.166
ATTCGCAC	-0.0817
CGTTAGAC	-0.13
AGTATGAG	0.159
CAAACTCG	0.0731
